Source: PubChem BioAssay AID1745853 (National Center for Advancing Translational Sciences (NCATS), 2022)
The other results are listed elsewhere or left out. Shown are side measurements of this screen, not its main read-out; they come without a call.

Legend:
Assay in all cases: Primary Screen for Target Class Profiling of Small Molecule Inhibitors of Methyltransferases
[1] = biological target: Glycine N-methyltransferase (Homo sapiens) (UniProt Q14749); details: purified enzyme, MTase-Glo SAH luminescence; measured here: GNMT inhibition; at 40 µM; stronger effect = lower value
How it was run: (§1)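 Each enzyme was reacted with SAM and its substrate, with compounds tested once at 40 uM; SAH formed was read by MTase-Glo luminescence.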

[2] = biological target: Guanidinoacetate N-methyltransferase (Homo sapiens) (UniProt Q14353); details: purified enzyme, MTase-Glo SAH luminescence; measured here: GAMT inhibition; at 40 µM; stronger effect = lower value
How it was run: as §1

[3] = biological target: Histamine N-methyltransferase (Homo sapiens) (UniProt P50135); details: purified enzyme, MTase-Glo SAH luminescence; measured here: HNMT inhibition; at 40 µM; stronger effect = lower value
How it was run: as §1

[4] = biological target: Nicotinamide N-methyltransferase (Homo sapiens) (UniProt P40261); details: purified enzyme, MTase-Glo SAH luminescence; measured here: NNMT inhibition; at 40 µM; stronger effect = lower value
How it was run: as §1

[5] = biological target: Phenylethanolamine N-methyltransferase (Homo sapiens) (UniProt P11086); details: purified enzyme, MTase-Glo SAH luminescence; measured here: PNMT inhibition; at 40 µM; stronger effect = lower value
How it was run: as §1
% is set by controls: 0 for no effect and ±100 for the full control effect.

| Compound | activity change, negative = inhibition [1] [%] | activity change, negative = inhibition [2] [%] | activity change, negative = inhibition [3] [%] | activity change, negative = inhibition [4] [%] | activity change, negative = inhibition [5] [%] |
| --- | --- | --- | --- | --- | --- |
| Cc1cccc(C2c3cccn3-c3ccccc3CN2C(=O)Nc2cccc(Cl)c2)c1 (stereo not given) | 9.9 | 2.62 | 1.73 | -1.57 | 4.55 |
| Cc1ccc(NC(=O)N2Cc3ccccc3-n3cccc3C2c2cccs2)c(Cl)c1 (stereo not given) | 6.69 | 4.02 | -1.39 | -6.42 | 1.29 |
| C=C1[C@@H](C)[C@H]2[C@H](Cc3ccccc3)NC(=O)[C@]23OC(=O)/C=C/C(=O)CCC[C@@H](C)C/C=C/[C@H]3[C@@H]1O | 5.38 | -2.35 | 8.54 | -14 | -0.799 |
| C=C1[C@@]23C(=O)O[C@H](C)[C@]24O[C@@]2(C(=C)[C@]5(C=CC(=O)OC5(C)C)CC[C@]32C)[C@H](O)[C@@]1(C)OC4=O | 0 | -1.78 | 9.41 | -16.9 | -10.5 |
| COC(=O)c1cccc(NC(=O)N2Cc3ccccc3-n3cccc3C2c2ccccc2Cl)c1 (stereo not given) | 2.33 | -6.07 | 4.13 | -7.93 | -1.34 |
| O=C(Nc1ccc(Cl)cc1)N1Cc2ccccc2-n2cccc2C1c1ccccc1 (stereo not given) | 9.65 | 0 | 2.45 | -1.82 | 3.14 |
| Cc1ccc(Cl)cc1NC(=O)N1Cc2ccccc2-n2cccc2C1C(C)C (stereo not given) | 0.428 | 0.812 | 2.31 | 5.42 | 6.45 |
| CCCNC(=O)N1Cc2ccccc2-n2cccc2C1c1ccc(SC)cc1 (stereo not given) | -0.532 | 3.15 | -2.76 | -1.48 | 1.8 |
| O=c1[nH]c2ccc(Cl)cc2c(N[C@@H]2CN3CCC2CC3)c1-c1nc2ccccc2[nH]1 | -10.8 | -0.731 | -0.242 | -40.7 | -7.83 |
| Cc1cccc(C2c3cccn3-c3ccccc3CN2C(=O)Nc2ccc(C)cc2Cl)c1 (stereo not given) | 7.63 | 0 | 3.35 | -3.93 | 1.84 |
| O=C(c1ccncc1)N1C2CCC1CN(Cc1cccnc1)C2 | 1.21 | -1.95 | 1.19 | -5.54 | -4.57 |
| CSc1ccc(C2c3cccn3-c3ccccc3CN2C(=O)Nc2cc(C)ccc2C)cc1 (stereo not given) | 6.3 | 1.94 | 1.25 | 3.88 | 6.64 |
| COC(=O)C12C(=O)C(C)(O)C(=O)C1(C)C(C)=CC1C34CCC(OC3=O)C(C)(C)C4CCC12C (stereo not given) | 0 | -7.03 | 4.33 | -19.8 | -15.8 |
| COc1cccc(CNC(=O)N2Cc3ccccc3-n3cccc3C2c2ccc(N(C)C)cc2)c1 (stereo not given) | 7.89 | 1.18 | 3.58 | 2.15 | 6.14 |
| C=CC(C)(O)CC/C=C(\C)C(=O)O[C@H]1[C@H](O)[C@@H](CO)O[C@@H](OC(=O)[C@]23CCC(C)(C)CC2C2=CCC4[C@@]5(C)CC[C@H](O[C@@H]6O[C@H](CO[C@@H]7OC[C@H](O)[C@H](O)[C@H]7O[C@@H]7OC[C@@H](O)[C@H](O)[C@H]7O)[C@@H](O)[C@H](O)[C@H]6O)C(C)(C)C5CC[C@@]4(C)[C@]2(C)CC3)[C@@H]1OC1OC(C)C(O[C@@H]2OC[C@@H](O)[C@H](O[C@@H]3OC[C@@H](O)[C@H](O)[C@H]3O)[C@H]2O)C(O)C1O (stereo not given in full) | 7.41 | 25.2 | 8.53 | 5.97 | 11.9 |
| Cc1ccc(Cn2nc(C(=O)N[C@@H]3C(C)(C)[C@@H]4CC[C@@]3(C)C4)cc2-c2ccc(Cl)c(C)c2)cc1 | 2.04 | -24.7 | 9.4 | -29.9 | -4.27 |
| CCOc1ccc(C2c3cccn3-c3ccccc3CN2C(=O)NCc2ccc(F)cc2)cc1 (stereo not given) | -2.44 | 4.19 | 3.69 | -2.16 | 3.1 |
| COc1ccccc1NC(=O)N1Cc2ccccc2-n2cccc2C1c1cc(F)cc(F)c1 (stereo not given) | 4.95 | 0 | 4.07 | 0.717 | 1.41 |
| O=C(NCc1ccc(F)cc1)N1Cc2ccccc2-n2cccc2C1c1ccc(F)cc1 (stereo not given) | -0.794 | 0 | -1.52 | -4.49 | 0.985 |
| CN(C)CCc1c[nH]c2ccc(CN3CCN(C)S3(=O)=O)cc12 | 2.61 | -3.26 | -32.9 | -11.2 | -6.19 |
| CCc1ccc(C2c3cccn3-c3ccccc3CN2C(=O)NCc2ccco2)cc1 (stereo not given) | 13 | 0 | 6.8 | 3.55 | 7.94 |
| CC12Cc3cn[nH]c3C=C1CCC1C2CCC2(C)C1CCC2(C)O (stereo not given) | -10.6 | 5.11 | -2.05 | -16.8 | -2.65 |
| Cn1nc(-c2cccs2)cc1[C@H]1CN2CC[C@H]1C[C@@H]2CNC(=O)Nc1ccccc1 | -4.99 | -3.4 | -24.4 | -9.63 | -13.7 |
| NCCc1c[nH]c2ccc(C(N)=O)cc12 | -0.457 | 9.13 | -34.4 | -6.93 | 2.48 |
| CC(C)c1ccc(C2c3cccn3-c3ccccc3CN2C(=O)Nc2ccc(F)cc2)cc1 (stereo not given) | -1.7 | 3.88 | -4.53 | -6.07 | -2.04 |
| CCOc1ccc(C2c3cccn3-c3ccccc3CN2C(=O)Nc2ccc(C)cc2Cl)cc1 (stereo not given) | -3.68 | 1.72 | -2.52 | -1.77 | -0.725 |
| COc1ccc(C2c3cccn3-c3ccccc3CN2C(=O)Nc2ccc3c(c2)OCCO3)cc1OC (stereo not given) | 13.4 | 2.08 | 6.53 | 5.95 | 11.1 |
| Cc1ccc(Cl)cc1NC(=O)N1Cc2ccccc2-n2cccc2C1C (stereo not given) | 6.74 | 0 | 5.22 | 3 | 6.55 |
